This list was built around the results that the source calls inconclusive (neither active nor inactive); the mix of calls is not that of the screen. Where the call is inconclusive, the potency comes from a doubtful curve fit. The source made the active and inactive calls. Unless noted, the call rests on the fitted dose curve; in most records, active means well fitted curve in the direction sought with a large enough effect; inconclusive means small, poorly fitted or top-dose-only effect, or another doubt; inactive means no such curve, though single readings can be large; an effect the other way counts as inactive or inconclusive. Where a SMILES comes first, the peptide text is derived from it. The star is where a group is joined. Hexanoyl = CCCCCC(=O)*
Key:
[1] = tested on: CRL-7250; assay: Cytotoxic Profiling of Annotated Libraries Using Quantitative High-Throughput Screening (AID 1296008); details: Five cell lines viability, CellTiter-Glo ATP luminescence, 48-72 h; max response: stronger effect = lower value; further: nearly all actives have a fitted effect of over 60% in size; on max response: on the % scale 0 is the no-effect control and ±100 the full control effect
Procedure, shortened: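 Cells exposed to compounds for 48 or 72 hr at 37 degrees Celsius. Viability read as ATP-coupled luminescence with CellTiter-Glo after 10 min at room temperature.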

[2] = tested on: C33A; assay: Primary qHTS to identify gynecologic anti-cancer compounds using libraries of approved drugs and bioactive compounds (AID 1345084); details: Gynecologic cancer cell panel viability, ATPlite luminescence, 48 h; series mostly up to 57.5 µM; further: nearly all actives have a fitted effect of over 55% in size; on activity change, negative = cytotoxicity: on the % scale 0 is the no-effect control and ±100 the full control effect
Procedure, shortened: (§1)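 Cells, 1,000 per well, were allowed to settle for 16 h at 37 C before compound addition. Five concentrations were tested for 48 h, and viability was read by ATPlite luminescence after 15 min at room temperature.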

[3] = tested on: CASKI; assay: as above; details: Gynecologic cancer cell panel viability, ATPlite luminescence, 48 h; series mostly up to 57.5 µM
Procedure, shortened: as §1

[4] = tested on: Hek293T; assay: as above; details: Gynecologic cancer cell panel viability, ATPlite luminescence, 48 h, control line for the selectivity index; activity change, negative = cytotoxicity: at 57.5 µM (top of the series) unless noted
Procedure, shortened: as §1

[5] = tested on: OV90; assay: as above; details: Gynecologic cancer cell panel viability, ATPlite luminescence, 48 h; series mostly up to 57.5 µM
Procedure, shortened: as §1

[6] = tested on: PA-1; assay: as above; details: Gynecologic cancer cell panel viability, ATPlite luminescence, 48 h; series mostly up to 57.5 µM
Procedure, shortened: as §1

[7] = tested on: SKOV3; assay: as above; details: Gynecologic cancer cell panel viability, ATPlite luminescence, 48 h; series mostly up to 57.5 µM
Procedure, shortened: as §1

[8] = tested on: Tov-21-G; assay: as above; details: Gynecologic cancer cell panel viability, ATPlite luminescence, 48 h; activity change, negative = cytotoxicity: at 57.5 µM (top of the series) unless noted
Procedure, shortened: as §1

[9] = Primary qHTS for small molecule stabilizers of the endoplasmic reticulum resident proteome: Secreted ER Calcium Modulated Protein (SERCaMP) assay (AID 1508630); details: SH-SY5Y GLuc-SERCaMP (Gaussia luciferase released on ER calcium loss) secretion, thapsigargin, luminescence; activity change, negative = inhibition: at 38.4 µM (top of the series) unless noted
Procedure, shortened: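 The SH-SY5Y reporter protocol was run at 3 concentrations up to 38.3 uM (primary) or 11 concentrations (follow-up): 16 h compound, 100 nM thapsigargin for 4 h, then extracellular luciferase luminescence.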

[10] = P-glycoprotein substrates identified in KB-8-5-11 adenocarcinoma cell line, qHTS therapeutic library screen (AID 1346987); further: nearly all actives have a fitted effect of over 65% in size; on activity change, negative = cytotoxicity: on the % scale 0 is the no-effect control and ±100 the full control effect
Procedure, shortened: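 Luminescence from CellTiter-Glo, read 5 min after addition, quantified survival of KB-8-5-11 (P-gp-overexpressing) cells exposed to compounds for 72 h. AC50 was derived from concentration-response curves.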

[11] = Primary fluorescence-based thiol-reactive (MSTI) qHTS assay for identification of artifact compounds. (AID 1845221);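 further: thiol-reactive compounds lower the probe fluorescence signal; nearly all actives have a fitted effect of over 65% in size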
Procedure, shortened: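 qHTS titration of compound; 4 uM MSTI, PBS pH 7.4, 2% DMSO; 1 h RT, dark; fluorescence 525/598 nm; normalized to Acetyl-MSTI and MSTI; 4-parameter Hill fit.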

[12] = tested on: Zika virus NS2B-NS3 protease (unlinked complex); assay: Primary screen GU Rhodamine qHTS for Zika virus inhibitors: Unlinked NS2B-NS3 protease assay (AID 1347159); further: nearly all actives have a fitted effect of over 60% in size
Procedure, shortened: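 In dose–response format, inhibition of unlinked protease (25 nM) was measured with 1.5 microM bis-peptide Rhodamine110 substrate. Aprotinin served as the intraplate control.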

[13] = Primary qHTS for inhibitors of nuclear receptor binding SET domain protein 2 (NSD2) in an isogenic RCH-ACV NSD2 p.E1099K mutant (9B) (AID 1645876); further: nearly all actives have a fitted effect of over 70% in size
[14] = Primary qHTS for inhibitors of nuclear receptor binding SET domain protein 2 (NSD2) in an RCH-ACV wild type WT cells (2C) (AID 1645877); details: activity change, negative = cell killing: at 44.9 µM (top of the series) unless noted; further: nearly all actives have a fitted effect of over 70% in size
[15] = biological target: Cytochrome P450 2D6 (Homo sapiens) (UniProt P10635); assay: Cytochrome P450 family 2 subfamily D member 6 (CYP2D6) small molecule antagonists: luciferase biochemical (cell-free) qHTS assay (AID 1645840; active means well fitted curve in the direction sought with a large enough effect in the repeat runs; inconclusive means weak or mixed curves; inactive means no such curve, though single readings can be large; an effect the other way counts as inactive or inconclusive; further: nearly all actives have a fitted effect of over 55% in size)
Procedure, shortened: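 P450-Glo CYP2D6 system: proluciferin substrate converted by enzyme to luciferin, read by luminescence proportional to activity. Enzyme-substrate mix with compound 10 min at room temperature, then NADPH regeneration 1 h before detection reagent.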

[16] = tested on: CAOV3; assay: Primary qHTS to identify gynecologic anti-cancer compounds using libraries of approved drugs and bioactive compounds (AID 1345084); details: Gynecologic cancer cell panel viability, ATPlite luminescence, 48 h; activity change, negative = cytotoxicity: at 57.5 µM (top of the series); further: nearly all actives have a fitted effect of over 55% in size; on activity change, negative = cytotoxicity: on the % scale 0 is the no-effect control and ±100 the full control effect
Procedure, shortened: as §1

[17] = biological target: Cytochrome P450 2C9 (Homo sapiens) (UniProt P11712); assay: Cytochrome P450 family 2 subfamily C member 9 (CYP2C9) small molecule antagonists: luciferase biochemical (cell-free) qHTS assay (AID 1645842; active means well fitted curve in the direction sought with a large enough effect in the repeat runs; inconclusive means weak or mixed curves; inactive means no such curve, though single readings can be large; an effect the other way counts as inactive or inconclusive; further: nearly all actives have a fitted effect of over 55% in size)
Procedure, shortened: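 P450-Glo CYP2C9 system: proluciferin substrate with enzyme in mix containing 0.4% BSA, 10 min at room temperature, then NADPH regeneration solution added and incubated 1 h at 37C. Detection reagent stopped reaction; luminescence read after 20 min as RLU.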

[18] = tested on: Zika virus NS2B-NS3 protease (linked construct); assay: Primary screen NINDS Rhodamine qHTS for Zika virus inhibitors (AID 1347160); details: activity change, negative = inhibition: at 57.1 µM (top of the series) unless noted; further: nearly all actives have a fitted effect of over 55% in size
Procedure, shortened: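 Each compound, titrated, sat 15 min with 25 nM linked protease before 1.5 microM Rhodamine110 substrate went in. Fluorescence gain over the next 15 min, in pH 8.0 Tris with Tween 20, gave Hill-fitted curves.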
Potency means the concentration at half of the fitted maximal effect; tags describe the fitted curve by direction and shape.

Sequence of UniProt P10635 (P10635 whole entry, looked up): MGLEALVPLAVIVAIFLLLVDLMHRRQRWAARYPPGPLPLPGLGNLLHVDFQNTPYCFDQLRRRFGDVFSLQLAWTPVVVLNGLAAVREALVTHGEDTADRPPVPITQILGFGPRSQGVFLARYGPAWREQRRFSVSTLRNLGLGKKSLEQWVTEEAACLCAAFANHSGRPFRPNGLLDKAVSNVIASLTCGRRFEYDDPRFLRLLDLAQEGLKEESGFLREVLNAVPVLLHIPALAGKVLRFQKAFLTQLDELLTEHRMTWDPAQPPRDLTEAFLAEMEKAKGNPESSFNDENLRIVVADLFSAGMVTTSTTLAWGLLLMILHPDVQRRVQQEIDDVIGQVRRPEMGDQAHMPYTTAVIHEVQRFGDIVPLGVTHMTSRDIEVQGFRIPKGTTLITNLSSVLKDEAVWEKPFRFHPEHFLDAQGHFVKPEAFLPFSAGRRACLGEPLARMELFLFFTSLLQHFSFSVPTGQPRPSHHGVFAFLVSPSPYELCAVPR
Sequence of UniProt P11712 (P11712 whole entry, looked up): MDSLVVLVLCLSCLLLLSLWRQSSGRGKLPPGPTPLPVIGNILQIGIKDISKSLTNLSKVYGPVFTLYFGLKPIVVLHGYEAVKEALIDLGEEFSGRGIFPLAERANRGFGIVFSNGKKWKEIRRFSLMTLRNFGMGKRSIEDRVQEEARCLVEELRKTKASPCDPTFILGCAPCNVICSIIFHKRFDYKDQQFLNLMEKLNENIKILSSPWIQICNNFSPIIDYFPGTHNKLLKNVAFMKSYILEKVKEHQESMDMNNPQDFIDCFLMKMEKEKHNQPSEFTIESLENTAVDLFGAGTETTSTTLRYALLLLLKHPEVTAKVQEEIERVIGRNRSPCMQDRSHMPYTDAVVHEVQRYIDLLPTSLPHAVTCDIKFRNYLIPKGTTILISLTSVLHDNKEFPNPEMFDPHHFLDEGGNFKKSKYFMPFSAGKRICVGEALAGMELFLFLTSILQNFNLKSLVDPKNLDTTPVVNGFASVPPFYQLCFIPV

CN[C@H](C(=O)N[C@H](C(=O)N(C)[C@H](/C=C(\C)C(=O)O)C(C)C)C(C)(C)C)C(C)(C)c1ccccc1
active: Potency [1] 0.0052 µM
inconclusive: Potency [2] 0.0011 µM | Potency [3] 0.0891 µM | Potency [4] 3.98 µM | Potency [5] 0.112 µM [cytotoxic, full curve] | Potency [6] 8.91 µM | Potency [8] 5.62 µM
inactive: Potency [7]

C/C(=N\O)[C@@H](C)NCC(C)(C)CN[C@H](C)/C(C)=N/O
inactive: outcome [1] | Potency [2] | Potency [6] | Potency [7]
inconclusive: Potency [9] 35.5 µM [inhibitor, partial curve] | Potency [5] 28.2 µM [cytotoxic, single point]

O=S(=O)(c1ccc(S(=O)(=O)n2cnc3ccccc32)cc1)N1CCCCCC1
inconclusive: Potency [11] 7.33 µM [inhibitor, partial curve] | Potency [7] 1.12 µM [rising, partial curve, poor fit]
inactive: Potency [10] | max response [1] -2.18% | Potency [2] | Potency [4]

CC1(C)CCCC2(C)C1CC(=O)C13CC(CCC12)C(O)(CO)C3 (stereo not drawn)
inconclusive: Potency [12] 10 µM [inhibitor, full curve] | Potency [13] 4.5 µM [inhibitor, full curve] | Potency [14] 4.5 µM [inhibitor, full curve] | Potency [1] 4.53 µM [inhibitor, partial curve]
inactive: Potency [2] | Potency [7] | Potency [8]

C=CC(=O)Nc1cc(Nc2ncc(Cl)c(-c3c[nH]c4ccccc34)n2)c(OC)cc1N(C)CCN(C)C
active: Potency [16] 17.8 µM | Potency [3] 2.24 µM | Potency [4] 11.2 µM | Potency [5] 3.98 µM
inconclusive: Potency [15] 19 µM [inhibitor, partial curve] | Potency [11] 1.89 µM [inhibitor, full curve] | Potency [1] 0.0041 µM [inhibitor, full curve, poor fit] | Potency [2] 20 µM [cytotoxic, partial curve, poor fit] | Potency [7] 14.1 µM [cytotoxic, partial curve, poor fit]

OC[C@H]1O[C@@H](n2cnc3c(NCc4ccc(O)cc4)ncnc32)[C@H](O)[C@@H]1O
active: Potency [1] 6.51 µM
inconclusive: Potency [10] 10.3 µM [inhibitor, partial curve] | Potency [13] 6.49 µM [inhibitor, partial curve] | Potency [14] 6.49 µM [inhibitor, partial curve] | Potency [2] 10 µM [cytotoxic, partial curve, poor fit] | Potency [3] 14.1 µM [cytotoxic, partial curve] | Potency [8] 12.6 µM [cytotoxic, partial curve]

C[C@@]12CC[C@@H]3[C@@](CC[C@H]4[C@@]3(C)CCC[C@@]4(C)C(=O)O)(CC1=O)C2
inconclusive: Potency [14] 0.0029 µM [inhibitor, full curve, poor fit] | Potency [16] 28.2 µM [rising, partial curve, poor fit]
inactive: Potency [10] | max response [1] -4.96% | Potency [4] | Potency [7]

Clc1ccc2c(c1)C1=NCCN1c1c(-c3noc(C4CC4)n3)ncn1-2
inconclusive: Potency [15] 12 µM [inhibitor, partial curve] | Potency [17] 33.8 µM [inhibitor, single point] | Potency [14] 6.49 µM [inhibitor, single point] | Potency [16] 39.8 µM [rising, single point]
inactive: outcome [1] | Potency [8]

CNCc1ccc(-c2cc(-c3nc(-c4ccc(S(=O)(=O)C(C)C)cc4)cnc3N)on2)cc1
active: Potency [17] 2.13 µM | Potency [16] 14.1 µM | Potency [6] 11.2 µM | Potency [7] 3.16 µM
inconclusive: Potency [1] 29.1 µM [inhibitor, single point] | Potency [3] 15.8 µM [cytotoxic, partial curve] | Potency [4] 7.94 µM [cytotoxic, full curve] | Potency [5] 5.62 µM [cytotoxic, full curve]

CCC1C(=O)OC23C=C[C@@H]4C(C(=O)O)=CO[C@H](O[C@@H]12)[C@@H]43 (stereo partly drawn)
inconclusive: Potency [11] 13.4 µM [inhibitor, partial curve] | Potency [1] 29.1 µM [inhibitor, single point] | Potency [2] 39.8 µM [cytotoxic, single point] | Potency [8] 39.8 µM [cytotoxic, single point]
inactive: Potency [10] | Potency [12] | Potency [4]

CC(C)C1(O[C@@H]2O[C@H](CO)[C@@H](O)[C@H](O)[C@H]2O)CC=C(CO)CC1 (stereo partly drawn)
inconclusive: Potency [12] 44.7 µM [inhibitor, partial curve] | Potency [16] 0.0891 µM [rising, full curve, poor fit] | Potency [6] 11.2 µM [rising, single point]
inactive: Potency [10] | outcome [1] | Potency [3] | Potency [8]

COc1cc(C=O)ccc1O
inconclusive: Potency [9] 31.6 µM [inhibitor, full curve]
inactive: max response [1] -1.68% | Potency [2]

CC1CC(=O)C2=C(CCC3(O)C(O)c4c(O)cccc4C(=O)C23O)C1 (stereo not drawn)
inconclusive: Potency [11] 7.36 µM [inhibitor, partial curve]
inactive: Potency [12] | Potency [13] | max response [1] -7.17% | Potency [2] | Potency [5] | Potency [6]

CC1=C2CC(=O)C(C)CC/C=C(\C)CC2OC1=O (stereo not drawn)
inconclusive: Potency [2] 22.4 µM [rising, single point]
inactive: Potency [14] | outcome [1]

CCCCCC(=O)N1CCC[C@H]1C(=O)N[C@@H](Cc1ccc(O)cc1)C(=O)OC (Hexanoyl-Pro-Tyr-OMe)
inactive: Potency [10] | Potency [15] | Potency [14] | max response [1] 1.02% | Potency [2] | Potency [16]
inconclusive: Potency [18] 5.01 µM [inhibitor, full curve] | Potency [7] 25.1 µM [rising, single point]
